Experimental data: PubChem BioAssay AID504466 (National Center for Advancing Translational Sciences (NCATS), 2011)
About 4,200 (1.3%) of roughly 330,000 compounds were called active. The inconclusive results got no clear call from the source; some entries with a clear call stand among them for comparison. Calls follow the shape of the dose curve; as a rule, active = well fitted activation curve with a large enough effect; inconclusive = small, poorly fitted or top-dose-only effect; inactive = no such curve, though single readings can be large or run the other way. A potency beside an inconclusive call is a rough fit, not a confirmed value.

Experiment: qHTS screen for small molecules that induce genotoxicity in human embryonic kidney (HEK293T) cells expressing luciferase-tagged ELG1; also: nearly all actives have a fitted effect of over 60% in size; as to activity change, positive = activation: % of control where 0% means no effect
Details: HEK293T ELG1-luciferase reporter, luminescence, 16 h; series mostly up to 46 µM; activity change, positive = activation: at the top concentration
In short: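 Cells (2,000/well) expressing the ELG1-luciferase fusion are dosed by pin tool and kept 16 hr at 37 °C, 5% CO2. Signal comes from ONE-Glo luciferase reagent after 30 min at room temperature.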
Potency is read from the fitted curve at half-maximal effect; tags tell the direction and shape of the fitted curve.

| Compound | Potency | activity change, positive = activation |
| --- | --- | --- |
| S=C(Nc1ccc(Br)cc1)Nc1ccc2c(c1)OCCO2 | inconclusive: 18.3 µM [activator, partial curve, poor fit] | – |
| CCCCSc1nc2ccccc2[nH]1 | inconclusive: 13 µM [activator, partial curve, poor fit] | – |
| O=c1c(-c2cc3ccccc3o2)[n+]([O-])c2ccccc2n1OCc1ccccn1 | inconclusive: 4.61 µM [activator, partial curve, poor fit] | – |
| CCN1C(=O)C2C(C1=O)N1C(c3cccs3)C3C(=O)N(CC)C(=O)C3N1C2c1cccs1 (stereo not given) | – | inactive: 0.776% |
| CCN(CC(=O)NCc1ccc(Cl)cc1)C(=O)CSc1ccc(Br)cc1 | – | inactive: -16.9% |
| c1ccc(-c2ccc(OCCN3CCOCC3)cc2)cc1 | inconclusive: 18.3 µM [activator, partial curve] | – |
| CC(C)CCNC(=O)c1ccc(-c2ccccc2)cc1 | inconclusive: 14.6 µM [activator, partial curve] | – |
| Oc1ccc2c(c1)oc1cc(O)ccc12 | – | inactive: 10.9% |
| COc1cccc(/C=C2\Oc3ccc(O)cc3C2=O)c1O | inconclusive: 6.51 µM [activator, single point] | – |
| O=C(N/N=C/c1cccc([N+](=O)[O-])c1O)c1cccs1 | – | inactive: 0.232% |
| Cc1c(C(=O)NCC2CCCO2)oc2ccccc12 (stereo not given) | inconclusive: 0.73 µM [activator, full curve, poor fit] | – |
| Cc1ccc(-c2cc(N)n(-c3ccc(F)cc3)n2)cc1 | active: 23.1 µM | – |
| O=C(NCCO)c1cc2c(s1)CCC2 | – | inactive: -0.602% |
| Cc1ccc(-n2ncc3c(N4CCCC(C)C4)ncnc32)c(C)c1 (stereo not given) | inconclusive: 2.59 µM [activator, full curve] | – |
| CC(C)COC(=O)N(C)c1ccc(C(O)(C(F)(F)F)C(F)(F)F)cc1 | inconclusive: 22.4 µM [activator, single point] | – |
| O=C(Nc1ccc(N2CCN(Cc3ccccc3F)CC2)cc1)c1ccc([N+](=O)[O-])o1 | – | inactive: 2.16% |
| O=C(Nc1ccc2c(c1)OCCO2)c1cnccn1 | active: 5.8 µM | – |
| C/C(=N\Nc1ccc2nncn2n1)c1ccccn1 | inconclusive: 8.2 µM [activator, partial curve] | – |
| Cc1c(C)c2ccc(OCc3ccc(C(=O)O)o3)c(C)c2oc1=O | inconclusive: 25.9 µM [activator, single point] | – |
| Cn1c(=O)[nH]c(=O)c2c1nc([N+](=O)[O-])n2Cc1ccccc1 | – | inactive: -14.9% |
| CCCn1c(/C=N/Nc2nc3ccccc3[nH]2)nc2ccccc21 | inconclusive: 5.8 µM [activator, full curve, poor fit] | – |
| Cc1cccnc1NC(=O)Nc1ccc(Cl)cc1 | inconclusive: 23.1 µM [activator, partial curve, poor fit] | – |
| O=C(NCCc1csc(-c2ccccc2)n1)c1c(F)cccc1F | – | inactive: -13.6% |
| CCOc1ccccc1NC(=O)COC(=O)CN1C(=O)NC(C)(C)C1=O | – | inactive: 2.38% |
| Cc1ccccc1-c1nnc(SCc2ccccc2)o1 | active: 14.6 µM | – |

| Compound | Potency | activity change, positive = activation |
| --- | --- | --- |
| O=C(N[C@@H](Cc1ccccc1)C(=O)OCc1ccccc1)c1nc[nH]c1C(=O)N1CCNCC1 | – | inactive: 4.84% |
| CCOC(=O)c1c(C)nc2sc3c(=O)n(-c4ccc(C(C)=O)cc4)cnc3c2c1-c1ccc(Cl)cc1 | – | inactive: -2.93% |
| O=C(NCCc1ccccc1)c1cc(S(=O)(=O)N2CCOCC2)ccc1F | inconclusive: 10.3 µM [activator, partial curve, poor fit] | – |
| C/C(NC(=O)c1cccc(F)c1)=C1/C(=O)C[C@@H]2[C@H]1C2(C)C | inconclusive: 18.4 µM [activator, partial curve] | – |
| CC(=O)c1cccc(-n2nnnc2SCC(=O)Nc2cccc(NC(=O)c3ccco3)c2)c1 | – | inactive: -11.4% |
| Cc1ccc(CNC(=O)Cn2ccc3cc(S(=O)(=O)N4CCCCCC4)ccc32)cc1 | – | inactive: -6.13% |
| CC(C)(C)OC(=O)C[C@H]1C/C=C\C[C@@H](CC(=O)NCCO)C(=O)NCCOC1=O | – | inactive: 7.06% |
| O=C(N/N=C/c1c[nH]c2ccccc12)C1CC1c1ccccc1 (stereo not given) | – | inactive: -2.11% |
| Cc1cc(C(=O)Nc2ccc3ccccc3c2)oc1C | active: 9.2 µM | – |
| O=C(CSc1nnc(-c2ccccn2)o1)Nc1ccccc1F | inconclusive: 8.2 µM [activator, partial curve, poor fit] | – |
| O=C(COC(=O)C(O)C(O)C(=O)OCC(=O)c1ccc(C(F)(F)F)cc1)c1ccc(C(F)(F)F)cc1 (stereo not given) | – | inactive: 0.505% |
| O=C1NC(=O)/C(=C\c2ccc(OCc3cnc(Cl)s3)cc2)S1 | – | inactive: 6.21% |
| C[C@@H]1CC=C[C@H]2[C@H]1C(=O)N(Cc1ccccc1)[C@H]2c1ccc(-c2cc3ccccc3s2)cc1F | inconclusive: 13 µM [activator, single point] | – |
| COc1cccc2c(=O)c(C(=O)NCc3cccs3)c[nH]c12 | inconclusive: 20.6 µM [activator, single point] | – |
| O=C(Nc1ccc(-c2cn3ccccc3n2)cc1)c1cccs1 | inconclusive: 2.59 µM [activator, full curve] | – |
| CC1CC/C(=C\c2ccc3c(c2)OCO3)C(=O)/C1=C/c1ccc2c(c1)OCO2 (stereo not given) | – | inactive: -1.49% |
| COc1cc(OC)c(OC)cc1CN1CCN(Cc2cccn2C)CC1 | – | inactive: -0.721% |
| CCN1CCN(c2ncnc3c2cnn3-c2ccc(Cl)cc2)CC1 | inconclusive: 9.2 µM [activator, partial curve] | – |
| CN(c1ccccc1C(=O)Nc1ccc2c(c1)n(C)c(=O)n2C)S(C)(=O)=O | inconclusive: 23.1 µM [activator, single point] | – |
| CCCNC(=O)NC1CCCc2ccccc21 (stereo not given) | – | inactive: -0.224% |
| Cc1ccc(NC(=O)c2ccoc2C)cc1C | inconclusive: 13 µM [activator, partial curve] | – |
| OC(COc1ccc2cc(Br)ccc2c1)CN1CCN(c2ccccn2)CC1 (stereo not given) | inconclusive: 25.9 µM [activator, single point] | – |
| CCOC(=O)N(C)c1ccc(C(O)(C(F)(F)F)C(F)(F)F)cc1 | inconclusive: 29.1 µM [activator, single point] | – |
| COc1ccc(/C(C)=N/NC(=O)c2cccc(S(=O)(=O)N3CCCC3)c2)c(O)c1 | inconclusive: 20.6 µM [activator, single point] | – |
| Cc1cc(C)n2nc(C(=O)NC3CCCc4ccccc43)nc2n1 (stereo not given) | – | inactive: -2.43% |

| Compound | Potency | activity change, positive = activation |
| --- | --- | --- |
| Cn1cc(C(=O)N/N=C/c2ccc(Br)c([N+](=O)[O-])c2)c2ccccc21 | inconclusive: 29.1 µM [activator, single point] | – |
| CCN=c1scc(C)n1/N=C/c1ccsc1 | inconclusive: 4.11 µM [activator, partial curve, poor fit] | – |
| CCCC(C(=O)Nc1ccncc1)c1ccccc1 (stereo not given) | – | inactive: -3.67% |
| CC(OC(=O)CCCCCN=C1NS(=O)(=O)c2ccccc21)C(=O)Nc1cc(Cl)cc(Cl)c1 (stereo not given) | – | inactive: 0.68% |
| C=CCNCCCCOc1ccc(OCc2ccccc2)cc1 | active: 13 µM | – |
| Fc1ccc(-c2nnsc2Sc2ccccn2)cc1 | inconclusive: 22.4 µM [activator, single point] | – |
| Cc1nc([N+](=O)[O-])c(C(=O)OCc2ccccc2C#N)n1C | – | inactive: -0.432% |
| CNC(=O)/C(C#N)=C/c1ccc(-c2nc3ccccc3s2)o1 | inconclusive: 9.2 µM [activator, partial curve] | – |
| COc1ccc(-c2cccc(C(=O)NCC(=O)O)c2)cc1 | inconclusive: 14.1 µM [activator, partial curve, poor fit] | – |
| Cc1ccccc1NC(=O)Nc1ccccn1 | – | inactive: 12.7% |
| O=C(CCCN1C(=O)/C(=C/c2cccs2)SC1=S)Nc1ccc(O)cc1 | inconclusive: 3.55 µM [activator, partial curve, poor fit] | – |
| Cc1[nH][nH]c(=O)c1C(c1c(C)[nH][nH]c1=O)c1cn(Cc2ccc(F)cc2)c2ccccc12 | inconclusive: 29.1 µM [activator, partial curve, poor fit] | – |
| CCCCCCc1ccc(N2C[C@H](Cc3ccccc3)[C@@H](CC(=O)Nc3ccccc3)C2=O)cc1 | – | inactive: -6.83% |
| CC(C)Cn1c(/C=N/Nc2nc3ccccc3[nH]2)nc2ccccc21 | inconclusive: 29.1 µM [activator, partial curve, poor fit] | – |
| Cc1nc(NC(=O)CCc2ccccc2)sc1C | inconclusive: 23.1 µM [activator, single point] | – |
| CC(=O)c1ccc(OCc2cc(C(=O)N3CC4C[C@@H]5CC3C[C@H](C4)C5)no2)cc1 | inconclusive: 3.66 µM [activator, full curve] | – |
| COc1ccc2cc(C(c3nnnn3C(C)(C)C)N3CCc4ccccc4C3)c(=O)[nH]c2c1 (stereo not given) | inconclusive: 32.6 µM [activator, partial curve, poor fit] | – |
| CC(C)COn1c(=S)[nH]c2ccccc2c1=O | inconclusive: 16.4 µM [activator, single point] | – |
| O=C1CNC(=S)N1c1nc2ccccc2s1 | inconclusive: 18.3 µM [activator, partial curve, poor fit] | – |
| COCCN1C(=O)N(c2cccc(C)c2)C(=O)C1CC(=O)Nc1ccc(OC)cc1 (stereo not given) | – | inactive: 1.48% |
| CNc1ncc(C(=O)c2ccc(Cl)c(Cl)c2)s1 | inconclusive: 18.4 µM [activator, partial curve, poor fit] | – |
| Nc1nc(-c2ccc3c(c2)OCCO3)cs1 | active: 20.6 µM | – |
| C(=N\Nc1ccc2ccccc2n1)/c1ccc2c(c1)OCO2 | inconclusive: 0.146 µM [activator, partial curve, poor fit] | – |
| O=C(N/N=C/c1ccc(OC(F)F)cc1)c1ccc(Br)cc1 | – | inactive: 6.99% |
| Cc1ccc(NC(=O)/C=C/c2ccc3c(c2)OCO3)nc1 | inconclusive: 2.59 µM [activator, partial curve] | – |
